Data reported in PubChem BioAssay AID2071 (Sanford-Burnham Center for Chemical Genomics, 2009).
Some of the results follow. These are further read-outs of the screen, such as a control signal, another cell line or another target. No call is given for them. The list favours compounds with an active or inconclusive main result.

test: NALP1 inflammasome inhibitors in reconstituted yeast, colorimetric, S. cerevisiae, triplicate retest (AID 2071); conditions: S. cerevisiae NALP1/ASC/caspase-1 growth, X-gal OD620, 72 h, at 20 µM, stronger effect = higher value

SMILES	inhibition
Cc1c(Cl)sn(-c2ccc(Cl)cc2)c1=O	103%
COc1ccc(Nc2cc(C)c3ccc(O)cc3n2)cc1	80.1%
CC1CCN(CCOc2ccc(OCc3ccccc3)cc2)CC1	51.4%
CC1(C)COC(/C=C/c2ccc([N+](=O)[O-])cc2)=N1	90.3%
CC1CCc2nc3sc4c(c3c(N)c2C1)CCCC4 (stereo not drawn)	64.6%
COc1ccccc1NC1=C(N2CCCCC2)C(=O)c2ccccc2C1=O	53.9%
CC1CCN(c2nc(CN3CCCCC3)nc3scc(-c4ccccc4)c23)CC1	71%
S=C1SCN(Cc2cccnc2)CN1Cc1cccnc1	117%
Cc1ccc(OCCCCN(C)Cc2ccccc2)c(Br)c1	81%
c1ccc2c(Nc3nc(N4CCOCC4)c4ccccc4n3)cccc2c1	92.7%
CC1CCC2C(=O)N(c3ccc(C(=O)Oc4cccc5cccnc45)cc3)C(=O)C2C1 (stereo not drawn)	70.5%
COc1ccc(CCN(C)C2CC(=O)N(c3ccccc3)C2=O)cc1OC (stereo not drawn)	116%
O=C(c1nnsc1S(=O)c1ccc(Cl)cc1)N1CCOCC1 (stereo not drawn)	114%
COc1ccccc1N1CCN(CCCCOc2cccc3ccccc23)CC1	86.2%
Cc1ccc(-n2c(Cl)c(Cl)nc(Cl)c2=O)cc1	116%
CCCCCCCCNC(C)C(O)c1ccc(SC(C)C)cc1 (stereo not drawn)	87.4%
CN(C)CCCN(C(=O)CCOc1ccccc1)c1nc2c(F)cccc2s1	109%
Nc1ccc2c(c1)C/C(=C/c1ccco1)C2=O	66.9%
OC(CNCCc1ccc(C(F)(F)F)cc1)COc1cccc2ccccc12 (stereo not drawn)	111%
NNC(=S)NCc1ccc2c(c1)OCO2	69.6%
CN(C)CCNC=C(C(=O)Nc1ccc(Cl)cc1Cl)C(=O)Nc1ccc(Cl)cc1Cl	104%
CC(=O)N(C1=C(Cl)C(=O)c2ccccc2C1=O)C1CCCCC1	107%
NCCS	57.1%

SMILES	inhibition
CCCNC(=O)c1nnsc1S(=O)(=O)c1ccc(Cl)cc1	114%
O=C(/C=C/c1cccc([N+](=O)[O-])c1)c1ccco1	71.3%
O=c1[nH][nH]c(-c2ccccc2O)c1C(C[N+](=O)[O-])c1ccc(Cl)cc1Cl (stereo not drawn)	61.4%
CN1CCN(C2=C(Cl)C(=O)C(c3cnc(N4CCCCC4)s3)=C(Cl)C2=O)CC1	105%
O=C(COC(=O)/C=C/c1cccs1)Nc1nc(-c2ccccc2)cs1	66.4%
Cc1ccc(NC(=O)CN(C)C(=O)COc2cccc3cccnc23)cc1	63.1%
COC(=O)C1(C(C[N+](=O)[O-])c2ccc(C)cc2)C(=O)NCC1c1ccco1 (stereo not drawn)	53.3%
CCOC(=O)C(=O)NNc1ccc(Cl)cc1	70.1%
C=CCNC(=S)N/N=C(\C)c1ccccn1	85.6%
CNC(CC(=O)c1ccc([N+](=O)[O-])cc1)C(Cl)(Cl)Cl (stereo not drawn)	82%
N/C(Cc1ccc([N+](=O)[O-])cc1)=N\OC(=O)c1ccccc1Br	62.7%
CCC(C(=O)OC)n1cnc2scc(-c3ccc(C)c(C)c3)c2c1=O (stereo not drawn)	95.6%
O=C1C=CCC(/C=C/c2ccccc2)O1 (stereo not drawn)	102%
CN(C)CCCN(C(=O)CCS(=O)(=O)c1ccccc1)c1nc2cc3c(cc2s1)OCO3	111%
C(=C\c1nc(N2CCCCCC2)c2ccccc2n1)/c1ccccc1	66.7%
CC1=C/C(=N\OS(=O)(=O)c2ccccc2)C(C(C)C)=CC1=O	55.3%
CCOC(=O)C(=Cc1cc(=O)c(OC)co1)C(=O)OCC	101%
CCc1cc(OCCCCNCc2ccccc2)ccc1Cl	111%
COC(=O)Cn1nc(-c2ccccc2)c2ccccc21	116%
CCOC(=O)C(C(=O)OCC)C(C(=O)OCC)N1CCOCC1 (stereo not drawn)	71.2%
O=[N+]([O-])c1ccc(OCC(O)CN2CCN(c3ccccc3F)CC2)cc1 (stereo not drawn)	54.9%
CCCCOc1ccc(C(=O)CCN2CCCCC2)cc1	50%
Cc1ccc(C(C[N+](=O)[O-])c2c(N)n(C)c(=O)n(C)c2=O)cc1 (stereo not drawn)	101%

SMILES	inhibition
CCCOc1ccccc1NC(=O)/C=C/C(N)=O	111%
CCn1ncc(C(=O)Nc2cccc(Cl)c2)c1C	57.9%
Nc1ccc(C(=O)c2cccs2)cc1	53.9%
CCCCOc1ccc(CSC2=NCCN2)cc1[N+](=O)[O-]	50.5%
CCc1oc2ccccc2c1C(=O)CCN1CCCCC1	105%
CCOc1cc(CNCc2ccncc2)cc(Br)c1OCc1ccc(F)cc1	70.6%
c1ccc(-c2ccc(-c3cn4c(n3)CCC4)cc2)cc1	50.8%
O=[N+]([O-])c1ccc(O)c2ncccc12	96.2%
Cc1ccc(CSCCNC(=O)CSCc2ccc([N+](=O)[O-])cc2)cc1	59.2%
CN(C)CCN(C(=O)/C=C/c1cccs1)c1nc2ccc(F)cc2s1	70.3%
CN(Cc1ccccc1)C(=O)c1ccc([N+](=O)[O-])o1	75.7%
CNC(=S)N/N=C/c1cc(Br)cc(Br)c1O	55.6%
CCN(CC)C1CC(=O)N(c2cccc(C)c2)C1=O (stereo not drawn)	111%
O=C(c1ccccc1)c1c2c(cc3sc4ccccc4[n+]13)-c1cccc3cccc-2c13	96.2%
CCCc1nn(C)c(C(=O)Nc2cccc(C)c2)c1Cl	53.5%
O=C(O)c1ccccc1SC1CC(=O)N(c2ccccc2)C1=O (stereo not drawn)	106%
OC(CSc1c(Cl)cccc1Cl)CN1CCN(c2ccccc2F)CC1 (stereo not drawn)	59.7%
CC(C)CN=Cc1c(O)c([N+](=O)[O-])cc2oc3c(c12)CCCC3	56.3%
CCN(CC)c1ccc(/C=C2/SC(=O)N(C(C)C)C2=O)o1	65.9%
Cc1ccc2nc(N(CCCN(C)C)C(=O)CCc3ccccc3)sc2c1	94%
CC1=NNC(=O)/C1=C\c1cn(-c2ccccc2)nc1-c1cccs1	72.5%
CC(NC(=O)/C(C#N)=C/c1ccc([N+](=O)[O-])o1)c1ccccc1 (stereo not drawn)	91.5%
